Experimental data from paper PMC6919601, “Identification of Plasmodium dipeptidyl aminopeptidase allosteric inhibitors by high throughput screening” (PLoS ONE, 2019).
In all, about 110,000 compounds went through this assay and about 230 (0.21%) showed an effect of 50% or more. Some of the results follow.

Molecular target: DPAP1 (Plasmodium falciparum, UniProt Q8IIJ9)
Assay: primary screen, percent inhibition; read by cleavage of a fluorogenic dipeptide substrate; higher = more effect of the substance
Set-up: species or system P. falciparum D10 trophozoite lysates; single well
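Further: 30 min substrate incubation versus DMSO and 10 µM JCP410 controls.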

DPAP1, sequence (Q8IIJ9 whole entry, looked up): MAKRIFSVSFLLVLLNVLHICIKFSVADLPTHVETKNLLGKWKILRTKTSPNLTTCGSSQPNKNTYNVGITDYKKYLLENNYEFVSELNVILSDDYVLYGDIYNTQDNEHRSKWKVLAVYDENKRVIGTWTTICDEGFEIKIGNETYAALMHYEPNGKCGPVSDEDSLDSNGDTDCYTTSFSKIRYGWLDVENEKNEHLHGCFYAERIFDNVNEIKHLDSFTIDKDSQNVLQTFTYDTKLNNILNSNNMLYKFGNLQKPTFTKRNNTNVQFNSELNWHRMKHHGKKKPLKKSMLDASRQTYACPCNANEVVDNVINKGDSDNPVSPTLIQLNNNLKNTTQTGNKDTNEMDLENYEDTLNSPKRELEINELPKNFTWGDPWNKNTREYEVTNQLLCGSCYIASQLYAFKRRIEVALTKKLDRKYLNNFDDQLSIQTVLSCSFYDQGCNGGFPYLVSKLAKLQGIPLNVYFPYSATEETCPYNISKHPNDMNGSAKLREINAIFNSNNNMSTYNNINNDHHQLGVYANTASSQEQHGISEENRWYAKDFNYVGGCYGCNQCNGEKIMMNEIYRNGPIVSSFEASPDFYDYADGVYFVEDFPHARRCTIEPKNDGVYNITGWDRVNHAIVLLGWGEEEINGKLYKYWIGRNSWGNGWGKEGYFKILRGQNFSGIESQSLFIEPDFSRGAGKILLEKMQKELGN

SMILES | % Inhibition @ 10 uM [%]
COc1cccc(CNc2nc3ccc(Cl)cc3n3nnnc23)c1 | 0.454
Cc1cc(C)n2nc(S(=O)(=O)Nc3c(Cl)cccc3Cl)nc2n1 | -7.76
Cc1ccc(/C(=N\C(=S)Nc2ccc([N+](=O)[O-])cc2)NCS(=O)(=O)c2ccccc2)cc1 | -5.28
COc1ccc2c(c1)CCc1sc(NC(=O)c3ccc(OC)c(OC)c3)nc1-2 | 4.03
Cc1cccc(CNC(=O)C2=Cc3sc(C)c(C)c3CS2)c1 | 4.17
Clc1ccc(OCc2nc3ccccc3[nH]2)cc1 | 0.219
Cc1ccc(C)c(-c2csc(Nc3ccc(F)cc3)n2)c1 | -2
COCc1cc(C)nc2sc(C(=O)OC)c(NC(=O)c3ccco3)c12 | -5.06
COc1ccc(C2=NN(CC(=O)N3CCCCC3)C(=O)CC2)cc1 | -5.43
CCc1cccc2c(C#N)cn(CC(=O)N(CC)CC)c12 | -1.84
Cc1csc(NC(=O)c2cc3ccc4cccnc4c3[nH]2)n1 | 13.4
COc1ccc(CNC(=O)c2ccc(-n3cnc4cccnc43)cc2)cc1 | 1.63
Cc1ccc(OCCCN2CCOCC2)c(C)c1 | 3
Cc1ccc(NC(=O)COc2ccc(Cl)cc2)cc1F | 0.605
COc1ccccc1OCCCCN1CCCC1 | -6.82
CCOC(=O)c1[nH]c2ccccc2c1NC(=O)c1c(OCC)ccc2ccccc12 | 5.4
Cc1cc(C)c(OCCN2CCCCC2)c(Cl)c1 | -2.97
O=C(NC1CC1)c1cc(-c2ccccn2)nc2ccc(S(=O)(=O)N3CCOCC3)cc12 | -4.97
COc1ccc(C(=O)NC2CCSC2=O)cc1 (stereo not shown) | 2.46
COc1ccc(N2CCN(C(=O)CN(c3ccc(C)c(C)c3)S(=O)(=O)c3ccccc3)CC2)cc1 | -10.2
Cc1nc2c(-c3ccccc3)c(C)nn2c(C)c1CC(=O)NC(C)CCc1ccco1 (stereo not shown) | 5.47
CCc1cc2c(=O)c(-c3nc4ccccc4s3)c(C)oc2cc1O | 3.8
COc1ccc(S(=O)(=O)NC2CCCCC2)cc1-c1nnc2c3ccccc3c(C)nn12 | -6.71
CC(C)CCn1c(SCC(=O)c2ccc(O)c(O)c2)nc2ccsc2c1=O | 16
CCc1ccc(-c2[nH]nc3nc(-c4ccc(OC)cc4OC)cc(C(=O)O)c23)cc1 | 5.37
CCOc1ccc(C(O)(CC)C(CN2CCCCC2)c2ccccc2)cc1 (stereo not shown) | 7.28

SMILES | % Inhibition @ 10 uM [%]
Cn1c(=O)c2c(nc(C(N)=O)n2C)n(C)c1=O | -6.69
CN1CCN(C(=O)c2ccc(Cl)cc2)CC1 | -3.65
O=C(c1cc2ccc3cccnc3c2[nH]1)N1CCN(Cc2ccccc2)CC1 | 4.44
CCc1c(C)nc2cc(-c3ccc(OC)cc3)nn2c1O | -3.74
Clc1ccccc1OCCCCN1CCCC1 | 1.35
O=C(NCCc1ccccc1)c1cc(-c2ccc3c(c2)OCO3)on1 | -8.56
CC(=O)Nc1ccc(NC(=O)c2cccc(Br)c2)cc1 | -3.13
CC(=O)c1cnc2cc(-c3ccc(Cl)cc3)nn2c1C | 1.39
Cc1cc(C(=O)O)c2cc(O)ccc2n1 | -1.97
Cc1ccc(NC(=O)Nc2ccccc2)c(Br)c1 | -2.55
Cc1ccc(Cl)cc1NC(=O)COc1ccc(S(=O)(=O)NC(C)C)cc1 | 5.31
COCCCNC(=O)c1cc2c(Cl)nc3ccc(C)cc3c2s1 | -1.7
COCc1cc(C)nc2sc3c(ncn4c5ccccc5nc34)c12 | -0.854
C=CCn1c(SCC(=O)N2CCOCC2)nc2sc3c(c2c1=O)CCC3 | -4.4
OCC1CCCCN1CCCc1ccccc1 (stereo not shown) | 4.55
Cc1nc2cc(-c3ccc(Cl)cc3)nn2c(C)c1CCC(=O)N1CCCC1 | -2.25
CNC(=O)C1CCCN(c2nn3cc(-c4ccc(OC)cc4)nc3s2)C1 (stereo not shown) | 2.47
O=C(COc1ccc(Cl)cc1Cl)N1CCN(c2ccccc2)CC1 | 0.0657
Cc1ccccc1C1C2=C(CCCC2=O)OC2=C1C(=O)CCC2 | -5.83
CCOC(=O)C1CCCN(Cc2ccc(Br)s2)C1 (stereo not shown) | -1.86
N#C[C@H](CC(=O)OCc1ccccc1)NC(=O)[C@H](CC1CCCCC1)NC(=O)OCc1ccccc1 | -3.04
CCCCN(C)C1CCN(CCC)CC1 | -0.0908
Fc1ccc(-c2ncnn2-c2ccccc2C(F)(F)F)cc1 | 4.74
COCCCNC(=O)Cn1c(-c2cccs2)cc2ccccc21 | -3.34
CC1=CC2=NC(=O)/C(=C\c3cc(C)n(-c4cccc(Cl)c4C)c3C)C(=N)N2O1 | -1.43
CCCNC(=O)CN(C)c1nn2c(=O)cc(C)nc2s1 | -7.54
